# Assay results: the supplement of paper PMC8728848
# The list shows a part of the results.
# Assays:
# Test in all cases: glycan array binding signal (z-score within array); higher = stronger binding
# Details in all cases: glycan notation: IUPAC condensed, linker removed
# Gal6S(b1-4)Glc6S = target: Gal6S(b1-4)Glc6S
# Procedure, shortened: (§1)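 Negative Z-scores can be read as non-binding. The Z-score is calculated within each array and then averaged across arrays of one protein sequence at different concentrations or buffers and across linkers. Arrays, 3228 in all, were curated from the Consortium for Functional Glycomics database and kept only where the protein sequence was available.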
# Gal6S(b1-4)GlcNAc = target: Gal6S(b1-4)GlcNAc
# Procedure, shortened: as §1
# Gal6S(b1-4)GlcNAc6S = target: Gal6S(b1-4)GlcNAc6S
# Procedure, shortened: as §1
# GalNAc(a1-3)Gal = target: GalNAc(a1-3)Gal
# Procedure, shortened: as §1
# GalNAc(a1-3)GalNAc = target: GalNAc(a1-3)GalNAc
# Procedure, shortened: as §1
# [1] = target: GalNAc(a1-3)GalNAc(a1-3)Gal(a1-4)Gal(b1-4)GlcNAc
# Procedure, shortened: as §1
# [2] = target: GalNAc(a1-3)GalNAc(b1-3)Gal(a1-4)Gal(b1-4)Glc
# Procedure, shortened: as §1
# [3] = target: GalNAc(a1-3)GalNAc(b1-3)Gal(a1-4)Gal(b1-4)GlcNAc
# Procedure, shortened: as §1
# GalNAc(b1-3)Gal = target: GalNAc(b1-3)Gal
# Procedure, shortened: as §1
# [4] = target: GalNAc(b1-3)Gal(a1-4)Gal(b1-4)GlcNAc
# Procedure, shortened: as §1
# [5] = target: GalNAc(b1-3)Gal(a1-4)Gal(b1-4)GlcNAc(b1-3)Gal(b1-4)Glc
# Procedure, shortened: as §1
# [6] = target: GalNAc(b1-3)Gal(a1-6)Gal(b1-4)Glc
# Procedure, shortened: as §1
# GalNAc(b1-3)GalNAc = target: GalNAc(b1-3)GalNAc
# Procedure, shortened: as §1
# GalNAc(b1-4)Gal(b1-4)Glc = target: GalNAc(b1-4)Gal(b1-4)Glc
# Procedure, shortened: as §1
# GalNAc(b1-4)GlcNAc = target: GalNAc(b1-4)GlcNAc
# Procedure, shortened: as §1
# [7] = target: GalNAc(b1-4)GlcNAc(b1-2)Man(a1-3)[GalNAc(b1-4)GlcNAc(b1-2)Man(a1-6)]Man(b1-4)GlcNAc(b1-4)GlcNAc
# Procedure, shortened: as §1
# GalNAc(b1-6)GalNAc = target: GalNAc(b1-6)GalNAc
# Procedure, shortened: as §1
# Glc(a1-4)Glc = target: Glc(a1-4)Glc
# Procedure, shortened: as §1
# [8] = target: Glc(a1-4)Glc(a1-4)Glc(a1-4)Glc
# Procedure, shortened: as §1
# Glc(a1-6)Glc(a1-6)Glc = target: Glc(a1-6)Glc(a1-6)Glc
# Procedure, shortened: as §1
# [9] = target: Glc(a1-6)Glc(a1-6)Glc(a1-6)Glc
# Procedure, shortened: as §1
# Glc(b1-4)Glc = target: Glc(b1-4)Glc
# Procedure, shortened: as §1
# Glc(b1-6)Glc = target: Glc(b1-6)Glc
# Procedure, shortened: as §1
# GlcA(b1-3)Gal = target: GlcA(b1-3)Gal
# Procedure, shortened: as §1
# GlcA(b1-3)GlcNAc = target: GlcA(b1-3)GlcNAc
# Procedure, shortened: as §1
# GlcA(b1-6)Gal = target: GlcA(b1-6)Gal
# Procedure, shortened: as §1
# [10] = target: GlcNAc(a1-3)Gal(b1-4)GlcNAc
# Procedure, shortened: as §1
# [11] = target: GlcNAc(a1-4)Gal(b1-3)GlcNAc
# Procedure, shortened: as §1
# [12] = target: GlcNAc(a1-4)Gal(b1-4)GalNAc
# Procedure, shortened: as §1
# [13] = target: GlcNAc(a1-4)Gal(b1-4)GlcNAc
# Procedure, shortened: as §1
# [14] = target: GlcNAc(a1-4)Gal(b1-4)GlcNAc(b1-3)Gal(b1-4)Glc
# Procedure, shortened: as §1
# [15] = target: GlcNAc(a1-4)Gal(b1-4)GlcNAc(b1-3)Gal(b1-4)GlcNAc
# Procedure, shortened: as §1
# [16] = target: GlcNAc(a1-4)Gal(b1-4)GlcNAc(b1-3)Gal(b1-4)GlcNAc(b1-3)Gal(b1-4)GlcNAc
# Procedure, shortened: as §1
# [17] = target: GlcNAc(a1-4)Gal(b1-4)GlcNAc(b1-3)Gal(b1-4)[Fuc(a1-3)]GlcNAc(b1-3)Gal(b1-4)[Fuc(a1-3)]GlcNAc
# Procedure, shortened: as §1
# [18] = target: GlcNAc(a1-6)Gal(b1-4)GlcNAc
# Procedure, shortened: as §1
# [19] = target: GlcNAc(b1-2)Gal(b1-3)GalNAc
# Procedure, shortened: as §1
# [20] = target: GlcNAc(b1-2)Man(a1-3)[GlcNAc(b1-2)Man(a1-6)]Man(b1-4)GlcNAc(b1-4)GlcNAc
# Procedure, shortened: as §1
# [21] = target: GlcNAc(b1-2)Man(a1-3)[GlcNAc(b1-2)Man(a1-6)]Man(b1-4)GlcNAc(b1-4)[Fuc(a1-6)]GlcNAc
# Procedure, shortened: as §1
# [22] = target: GlcNAc(b1-2)Man(a1-3)[GlcNAc(b1-4)][GlcNAc(b1-2)Man(a1-6)]Man(b1-4)GlcNAc(b1-4)GlcNAc
# Procedure, shortened: as §1
# [23] = target: GlcNAc(b1-2)[GlcNAc(b1-4)]Man(a1-3)[GlcNAc(b1-2)Man(a1-6)]Man(b1-4)GlcNAc(b1-4)GlcNAc
# Procedure, shortened: as §1
# [24] = target: GlcNAc(b1-2)[GlcNAc(b1-4)]Man(a1-3)[GlcNAc(b1-4)][GlcNAc(b1-2)Man(a1-6)]Man(b1-4)GlcNAc(b1-4)GlcNAc
# Procedure, shortened: as §1
# [25] = target: GlcNAc(b1-2)[GlcNAc(b1-4)]Man(a1-3)[GlcNAc(b1-4)][GlcNAc(b1-2)[GlcNAc(b1-6)]Man(a1-6)]Man(b1-4)GlcNAc(b1-4)GlcNAc
# Procedure, shortened: as §1
# [26] = target: GlcNAc(b1-2)[GlcNAc(b1-6)]Man(a1-6)[GlcNAc(b1-2)Man(a1-3)]Man(b1-4)GlcNAc(b1-4)GlcNAc
# Procedure, shortened: as §1
# [27] = target: GlcNAc(b1-2)[GlcNAc(b1-6)]Man(a1-6)[GlcNAc(b1-2)Man(a1-3)][GlcNAc(b1-4)]Man(b1-4)GlcNAc(b1-4)GlcNAc
# Procedure, shortened: as §1
# GlcNAc(b1-3)Gal = target: GlcNAc(b1-3)Gal
# Procedure, shortened: as §1
binder,measurement,setting,value
"AFL (Aspergillus fumigatus), Q4WW81 (protein) STPGAQQVLFRTGIAAVNLTNHLRVYFQDVYGSIRESLYEGSWANGTEKNVIGNAKLGSPVAATSKELKHIRVYTLTEGNTLQEFAYDSGTGWYNGGLGGAKFQVAPYSRIAAVFLAGTDALQLRIYAQKPDNTIQEYMWNGDGWKEGTNLGGALPGTGIGATSFRYTDYNGPSIRIWFQTDDLKLVQRAYDPHKGWYPDLVTIFDRAPPRTAIAATSFGAGNSSIYMRIYFVNSDNTIWQVCWDHGKGYHDKGTITPVIQGSEVAIISWGSFANNGPDLRLYFQNGTYISAVSEWVWNRAHGSQLGRSALPPA",glycan array binding signal (z-score),Gal6S(b1-4)Glc6S,-0.387
same,glycan array binding signal (z-score),Gal6S(b1-4)GlcNAc,-0.381
same,glycan array binding signal (z-score),Gal6S(b1-4)GlcNAc6S,-0.383
same,glycan array binding signal (z-score),GalNAc(a1-3)Gal,-0.386
same,glycan array binding signal (z-score),GalNAc(a1-3)GalNAc,-0.382
same,glycan array binding signal (z-score),[1],-0.4
same,glycan array binding signal (z-score),[2],-0.381
same,glycan array binding signal (z-score),[3],-0.377
same,glycan array binding signal (z-score),GalNAc(b1-3)Gal,-0.386
same,glycan array binding signal (z-score),[4],-0.377
same,glycan array binding signal (z-score),[5],-0.388
same,glycan array binding signal (z-score),[6],-0.376
same,glycan array binding signal (z-score),GalNAc(b1-3)GalNAc,-0.38
same,glycan array binding signal (z-score),GalNAc(b1-4)Gal(b1-4)Glc,-0.362
same,glycan array binding signal (z-score),GalNAc(b1-4)GlcNAc,-0.385
same,glycan array binding signal (z-score),[7],-0.378
same,glycan array binding signal (z-score),GalNAc(b1-6)GalNAc,-0.389
same,glycan array binding signal (z-score),Glc(a1-4)Glc,-0.386
same,glycan array binding signal (z-score),[8],-0.374
same,glycan array binding signal (z-score),Glc(a1-6)Glc(a1-6)Glc,-0.382
same,glycan array binding signal (z-score),[9],-0.371
same,glycan array binding signal (z-score),Glc(b1-4)Glc,-0.376
same,glycan array binding signal (z-score),Glc(b1-6)Glc,-0.388
same,glycan array binding signal (z-score),GlcA(b1-3)Gal,-0.385
same,glycan array binding signal (z-score),GlcA(b1-3)GlcNAc,-0.361
same,glycan array binding signal (z-score),GlcA(b1-6)Gal,-0.391
same,glycan array binding signal (z-score),[10],-0.382
same,glycan array binding signal (z-score),[11],-0.377
same,glycan array binding signal (z-score),[12],-0.384
same,glycan array binding signal (z-score),[13],-0.382
same,glycan array binding signal (z-score),[14],-0.385
same,glycan array binding signal (z-score),[15],-0.31
same,glycan array binding signal (z-score),[16],-0.384
same,glycan array binding signal (z-score),[17],0.788
same,glycan array binding signal (z-score),[18],-0.371
same,glycan array binding signal (z-score),[19],-0.383
same,glycan array binding signal (z-score),[20],-0.371
same,glycan array binding signal (z-score),[21],1.17
same,glycan array binding signal (z-score),[22],-0.38
same,glycan array binding signal (z-score),[23],-0.377
same,glycan array binding signal (z-score),[24],-0.381
same,glycan array binding signal (z-score),[25],-0.387
same,glycan array binding signal (z-score),[26],-0.383
same,glycan array binding signal (z-score),[27],-0.384
same,glycan array binding signal (z-score),GlcNAc(b1-3)Gal,-0.361
